In article PMC12136788:
The other results are listed elsewhere or left out.

B1: chr6:49492913:49492980:+|3pUTR|ENSG00000031691|msi1_unk|FALSE|overlapping (ssRNA)
RNA: GGGAGUUCUACAGUCCGACGAUCUGUUGAAUAUUUUCUACUGUCAUCAAAACAUAUUCCCAAAAAGUAUUAAAAAGGAACCUUAGCACAUUUAUUUUAUUAAAACAAGAAAACCCAAAAUAUAUAAACCUUUUCUUAUUAUGACAACAGAGGAUUGAGCAUCA
B2: chr6:121448137:121448244:+|3pUTR|ENSG00000152661|msi1|total|mutant (ssRNA)
RNA: GGGAGUUCUACAGUCCGACGAUCAUGAGGCUCCGAAAACACAAAGACAUCCGAAUACCCCGGUUCACUGGGGGUGUAUGGGGCCGAUGGGUGGAGAGGGAGGGGAUAAGAGAGGUGCAUGUUGGUAUUUAAAGCCGUGGAUUCCAACAGAGGAUUGAGCAUCA
B3: chr9:114598126:114598323:+|3pUTR|ENSG00000136888|msi1|total|mutant (ssRNA)
RNA: GGGAGUUCUACAGUCCGACGAUCUCUUUGUAACCUGUGUGAAGCAGCAGCCAGCCUUAAAGCCGUCCAUUCUUGCUAAUGGUCCGAACAGUGAAUACCCGUGGAAUUGUUUGGGCUGCUUUCCGUUUCUCUUAAUCAAAAUUACAACAGAGGAUUGAGCAUCA
B4: chr4:125449804:125449905:+|CDS|ENSG00000196159|msi1|total|mutant (ssRNA)
RNA: GGGAGUUCUACAGUCCGACGAUCAAACAGAUCUUAAAAUACCAAAAUGUCACUGGCUUCAGUAAUGUGAAUAUCAACAGGCACCGUUUUACCGUGACAUCUUCAGAUCGAGGUAAACCUUCCUUAAUCCGUGAGACAACAGUUCAACAGAGGAUUGAGCAUCA
B5: chr5:52955293:52955406:+|3pUTR|ENSG00000213949|unk|total|mutant (ssRNA)
RNA: GGGAGUUCUACAGUCCGACGAUCUACCAACCAGUGUGAGCUGACUUCAGCACACCACUGAGACAGAUUACACGACCGACAGACCGACCGACCGACCGACCGACCGACCGACCGACCGACCGACCGAUAUUGACCGAGAACAUGCAACAGAGGAUUGAGCAUCA
B6: chr2:135782819:135782876:+|CDS|ENSG00000144224|msi1_unk|FALSE|overlapping (ssRNA)
RNA: GGGAGUUCUACAGUCCGACGAUCGUGAGAAAAAGAGUGCUGGAAAAACGUGGAGACGACUUUAAAAAGGAGGGGAAAAUUUAUAGAUUAAGGACUCAAGAUGAUGGUGAAGAUGAAAACAACACUUGGAAUGGAAAUUCCACUCAACAGAGGAUUGAGCAUCA
B7: ENSG00000124766:be:win_1451|3pUTR|ENSG00000124766|bound_else_gene|NA|bound_elsewhere_windowed (ssRNA)
RNA: GGGAGUUCUACAGUCCGACGAUCCGGGGGGGGUAGGAGAGGAGAAAAAAAAAGUGAAAAAAAGAAACGAAAAGGACAGACGAAGAGUUUAAAGAGAAAAGGGAAAAAAGAAAGAAAAAGUAAGCAGGGCUGGCUUCGCCCGCGCAACAGAGGAUUGAGCAUCA
B8: chr4:56994692:56994796:+|CDS|ENSG00000047315|unk|FALSE|unique (ssRNA)
RNA: GGGAGUUCUACAGUCCGACGAUCAAAAACAGUCAUUAAAGAAGGUGAAGAACAACUUCAGACUCAGCAUCAGAAAACUUUUAUAGGAAAAAUUCCAAUUAUGUUGCGGUCAACUUACUGCCUUUUGAAUGGCUUGACAGAUCGCAACAGAGGAUUGAGCAUCA
B9: ENSG00000084234:stop:overlap|stop_codon|ENSG00000084234|stop_codon|NA|stop_codon (ssRNA)
RNA: GGGAGUUCUACAGUCCGACGAUCAGAUGCAGAACCAUGGCUAUGAGAACCCCACCUACAAAUACCUGGAGCAGAUGCAGAUUUAGGUGGCAGGGAGCGCGGCAGCCCUGGCGGAGGGAUGCAGGUGGGCCGGAAGAUCCCACGCAACAGAGGAUUGAGCAUCA
B10: chr14:55043969:55044070:+|CDS|ENSG00000180008|unk|FALSE|bound_elsewhere (ssRNA)
RNA: GGGAGUUCUACAGUCCGACGAUCUUUUUACUUCGAGACUCAGCACAGGAAGACUAUUUAUUCUCUGUUAGUUUUAGACGCUAUAGUCGUUCUCUUCAUGCUAGAAUUGAACAGUGGAAUCACAACUUUAGCUUUGAUGCACAUCAACAGAGGAUUGAGCAUCA
B11: chr10:72062367:72062468:-|3pUTR|ENSG00000107742|unk|FALSE|unique (ssRNA)
RNA: GGGAGUUCUACAGUCCGACGAUCCCUUGAUCCACACUGCUCCUGGCAGAGUGAGUCACCCAAAGGCCCCUUCGGCCUCCUUGUAGCUGUUUUCUUUCCUUUUGUUGUUGGUUUUAAAAUACAUUCACACACAAAUACAAAUUGCAACAGAGGAUUGAGCAUCA
B12: chr17:35924603:35924772:-|CDS|ENSG00000278023|control|control|control (ssRNA)
RNA: GGGAGUUCUACAGUCCGACGAUCGGAAAAUGAAGAUAGCAUGGUGCCACUUCCGAAGCAAAGCCUGAAGUUCUUCUGUGCUUUAGAAGUGGUGUUGCCAUCCUGUGAUUGCAGGAGUCCUGGCAUUGGCUUGGUGGAGGAGCCCAACAGAGGAUUGAGCAUCA
B13: chr5:148417036:148417137:+|CDS|ENSG00000145868|unk|total|mutant (ssRNA)
RNA: GGGAGUUCUACAGUCCGACGAUCGGUUGUGCUCGAGUUGGUCUGAGUGCAGGCACAGGAAUUGGUGUUUCAUCAGCUCUUGUCCGCAACCAGAACUCCAACAAUGACGAUAAUAAUGCCCAGAAUAACAAUGCCAACAUCCACCAACAGAGGAUUGAGCAUCA
B14: chr10:62806226:62806343:+|3pUTR|ENSG00000181915|unk|FALSE|unique (ssRNA)
RNA: GGGAGUUCUACAGUCCGACGAUCCUACCCCUUAGUUAAAUAGGGUUUAUUUUCCACUCAUGCCCUUAUGCCUUUUUUUCUUAUAGUUUUUUAACUUAUUGACUGUGCAUGACCCAGUGGUUUGAAUUGUUUUUAGUUCAAGUCCAACAGAGGAUUGAGCAUCA
B15: chr10:50307981:50308148:-|CDS|ENSG00000198964|control|control|control (ssRNA)
RNA: GGGAGUUCUACAGUCCGACGAUCCUGGUGGUAUCACUGGAUUUGCUGGCUUCUCAGCGUAGUUGGAAUCUUCUGUAUUCUCUUAGCGCAUGACCACUACACUGUGGACGUGGUGGUGGCAUAUUACAUCACCACGAGACUCUUCAACAGAGGAUUGAGCAUCA
B16: chr3:197282668:197282805:-|CDS|ENSG00000075711|msi1|FALSE|unique (ssRNA)
RNA: GGGAGUUCUACAGUCCGACGAUCUGGGAGAUUUCCAGCCUUCCAAGCUCUACUGUGACUUCAGAGACACUGCCAAGCAGCCUUAGCCCUAGUGUAGAGGUGAGAUAAAAAAUGUGUUCUGAAGCUGUUUUUUGGUGAUCAAUUCAACAGAGGAUUGAGCAUCA
B17: chr9:115020670:115020933:-|3pUTR|ENSG00000041982|msi1|FALSE|unique (ssRNA)
RNA: GGGAGUUCUACAGUCCGACGAUCCUUCUCUUAGGUGGCUCUGGGAAUGGGAGAGGGGUAGGAUGUACAGGGGUAGUUUGUUUUAGAACCAGCCGUAUUUUACAUGAAGCUGUAUAAUUAAUUGUCAUUAUUUUUGUUAGCAAACAACAGAGGAUUGAGCAUCA
B18: chr3:194355248:194359297:-|three_prime_utr|ENSG00000172061|control|control|control (ssRNA)
RNA: GGGAGUUCUACAGUCCGACGAUCCUCUUUCUGGCCCCAGAGAAAGGUGAGCCUACCUCUUCCUGACUUGCCUGAUUCUCCCGUAGAGAAGCAGGUCGUGCCGGACCUUCCUACAAUCAGGAAGAUAGAUCCAACUGGCCAUGGCAACAGAGGAUUGAGCAUCA
B19: chr1:215620365:215620495:+|CDS|ENSG00000136636|unk|FALSE|unique (ssRNA)
RNA: GGGAGUUCUACAGUCCGACGAUCGGUUUUUCAGAAUCCAAGAAAAGGUCAUCAGAAGAUGAAAAUGAAAAUAAAAUAGAGUUUAGGAAGAAAGGAGGAUUUGAAGGGGGAGGAUUCCUUGGAAGAAAGAAAGUUCCCUAUCUGCAACAGAGGAUUGAGCAUCA
B20: chr3:179570125:179570235:+|CDS|ENSG00000136518|unk|total|mutant (ssRNA)
RNA: GGGAGUUCUACAGUCCGACGAUCAAGCACAUUAAUGGAAACCGAUGGCGAUAAAGGCAAACAAGGCGGUCCCACCUACUACACCGAUACUAAUGCUCUGCGUGUUCCGAGGGAGAAUAUGGAGGCCAUUUCACCUCUAAAAAACAACAGAGGAUUGAGCAUCA
B21: chr12:132079871:132079972:+|3pUTR|ENSG00000183495|msi1|total|mutant (ssRNA)
RNA: GGGAGUUCUACAGUCCGACGAUCAGAUGCUACCGUUGACCUGAGUUAAAUUCAUUCCGUCGUGUACGUAAAAACUCUCCUUUCCGUGUGUUAUUUUCUUGGCCUUCCCUUUUAAAGGUUAAAGUUUCUAACCUAAGAAUUAAGCAACAGAGGAUUGAGCAUCA
B22: chr19:12699786:12699848:-|3pUTR|ENSG00000105576|msi1_unk|total|mutant (ssRNA)
RNA: GGGAGUUCUACAGUCCGACGAUCCCUGCUCCAUCCAUCCCUCCUGGGCGCCAGACCCUCCAUCCAAGCCCUGUGUCUUUCCACCGUCAGGGUCAGGCCCUGCAUCUAUUCCAAGGGGCACUCAGUACACAUUCCAUAAAUCCGCAACAGAGGAUUGAGCAUCA

Molecular target: MSI1 full-length (mouse, UniProt Q61474 1-362)
Chain of UniProt Q61474 (Q61474 whole entry): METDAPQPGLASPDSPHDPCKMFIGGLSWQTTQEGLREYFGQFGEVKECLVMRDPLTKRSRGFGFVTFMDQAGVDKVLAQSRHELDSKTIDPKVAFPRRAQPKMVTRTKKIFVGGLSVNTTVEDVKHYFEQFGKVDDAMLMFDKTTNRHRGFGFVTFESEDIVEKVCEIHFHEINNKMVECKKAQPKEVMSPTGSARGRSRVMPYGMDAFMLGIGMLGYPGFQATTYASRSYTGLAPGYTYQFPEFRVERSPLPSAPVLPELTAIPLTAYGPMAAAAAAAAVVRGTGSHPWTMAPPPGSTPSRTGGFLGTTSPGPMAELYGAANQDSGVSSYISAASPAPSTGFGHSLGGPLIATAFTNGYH
Assay: nsRBNS (natural sequence RNA bind-n-seq); RBNS binding buffer (assumed for nsRBNS): 25 mM Tris pH 7.5, 150 mM KCl, 3 mM MgCl2, 0.01% Triton X-100, 500 ug/ml BSA, 20 U/ml SUPERase-In, 4 C; UNK is unkempt and MSI1 is Musashi-1; names of the RNAs are library labels; protein concentration not given here; high values mean tight binding

First: B1
Second: B2
The binding signal of the first is higher: 4.32 enrichment R for the first, 0.949 enrichment R for the second.

First: B3
Second: B4
The binding signal of the first is higher: 0.47 enrichment R for the first, 0.198 enrichment R for the second.

First: B5
Second: B6
The binding signal of the first is lower: 0.369 enrichment R for the first, 0.82 enrichment R for the second.

First: B7
Second: B8
The binding signal of the first is higher: 1.11 enrichment R for the first, 0.453 enrichment R for the second.

First: B9
Second: B10
The binding signal of the first is lower: 0.678 enrichment R for the first, 8.13 enrichment R for the second.

Compared with B11, B12 is higher in binding signal: 0.528 enrichment R for the first, 0.574 enrichment R for the second.

First: B13
Second: B14
The binding signal of the first is lower: 0.295 enrichment R for the first, 10.9 enrichment R for the second.

Going from B15 to B16, the binding signal rises from 0.406 enrichment R to 3.02 enrichment R.

Compared with B17, B18 is lower in binding signal: 4.36 enrichment R for the first, 0.351 enrichment R for the second.

First: B19
Second: B20
The binding signal of the first is higher: 1.85 enrichment R for the first, 0.428 enrichment R for the second.

Compared with B21, B22 is higher in binding signal: 0.276 enrichment R for the first, 0.796 enrichment R for the second.
